Some of the results follow. At the low end of the ranking the order means little. Measured with an extract: partners may take part in the binding.
Molecular target: T1, HNF4alpha8 (COS-7 nuclear extract) (UniProt P41235-5)
T1 sequence: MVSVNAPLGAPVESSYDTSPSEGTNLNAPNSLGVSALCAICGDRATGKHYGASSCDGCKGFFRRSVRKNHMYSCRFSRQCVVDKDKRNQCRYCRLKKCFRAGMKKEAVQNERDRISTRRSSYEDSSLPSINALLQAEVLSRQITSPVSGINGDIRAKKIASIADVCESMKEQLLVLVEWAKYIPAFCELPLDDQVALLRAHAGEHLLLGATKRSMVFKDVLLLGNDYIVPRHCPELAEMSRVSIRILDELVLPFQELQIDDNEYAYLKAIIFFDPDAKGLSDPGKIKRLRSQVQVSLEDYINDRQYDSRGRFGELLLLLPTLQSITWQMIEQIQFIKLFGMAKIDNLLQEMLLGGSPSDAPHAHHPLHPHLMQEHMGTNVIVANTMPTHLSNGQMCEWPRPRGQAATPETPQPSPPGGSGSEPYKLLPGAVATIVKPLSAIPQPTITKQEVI
Assay: protein-binding microarray
Conditions: COS-7 nuclear extract on double-stranded Agilent 4x180k PBM; binding buffer, salt, pH and temperature not given; high values mean tight binding; double strand, one strand shown; sequences stand for … in …GCCTAGGGAGATTAGAGTATCGGTCGA

Sequence	binding signal (log2 normalized intensity)
GCTCATTCCCTAGGGCTCGGCATTCAGACA	-1.32
TAACCTGCTCTCTCATGCCCTTTGCCTCCC	5.01
TCCAGACTTTGTACAAGGGCACTAGCTCTT	0.395
TTAGTTCTTTGTAGGAAGGCTTTGAAGTCT	0.157
ATTCCTACTAATTTTGTTTCCTAGTTCAAA	0.156
GAGGAGGCCTTTCCTGACCCCTCCTCCCCC	5.72
GTGGATATTGGGAGGCCCATTGTGCTGGGG	0.52
TTTGATGGACATTGCTGGTGGTGGTAGATC	1.45
GCCAGGCAGGACAGTTTTGTGTGTTTAATG	0.878
AGCCCTGTTGACATCTTGATTTAGCCCAGT	0.0235
CCAAACTGGTTTCTCCGCTCGGGGAGGTGC	-1.2
CCATTGTATGAGGGTGAAGTTTGGCAATTA	0.417
TCTGACCCATTCCTTCTCACCGGGTGGAGC	0.533
ATCATCTACTATGTGCCAGACACTGCTCTA	-1.3
GGAGGTTCTTGTTTAATTCTTTTCAACTGG	1.25
CGCCAGCGCCCCCGTGTGGCCGCGAGCACC	2.86
AGTATATTGGCTTGGCTGTGTCCCTTGACC	3.67
ACTGGGGATAGAATCAAAGGTCAGGAATCG	4.02
CGGTCAGCTGCTTGACTTAGTACATGGCCT	0.903
AACTGGGGGCATAGCCCATGCAAATACTCG	-1.43
ATGGCCAGCCTTTGGACTTTGAACTGCAAC	10.1
GAGATCAGGATACCAAGGCTCAGAGGTCAA	4.27
AGGACCTGACATTCTCCACTTGGTGACTGT	-0.319
CTTTCAGCCTCTCTGCAAACATTTATTTTG	-0.117
GAGATCAGGTCTCTTTTATGTACCACCGTA	1.34

Sequence	binding signal (log2 normalized intensity)
GAGGGTAACAATGCTGATGGGGACCACAGA	-1.43
GTCGACCTTTAAACGTTTGCTGGATCAGCA	2.6
ATAGCTCAGGTCCAAGGAACCTCACGCGCT	-1.26
TTTGAAGGTTAAAGTCCATTTTTGAGGACC	6.47
TTATGATATGAAGCATTGCTTGAGTCACTT	0.112
TGCTGTGTGTGTGTGTGTGTGTGTGTGTGT	3.44
CAAGTGCCAACAAACTCAATCCTGGCCTCT	-0.0333
ATGCAACCTTTGTCCTCATTGAGCCCTCCC	4.19
GGTGAAGGATGGAATGCTGAAGGGAAGGCT	-1.13
GAAGTACAACTTCAGCAATGAAAGATGTTT	-1.01
TAAGCAAACATTCCTCCCTCCCTCTTCCCT	2.71
GGTGAGGGTGAGGGTGAGGGTTAGGGGTTA	1.07
AATAATTTGAAGTTTAGAGATGCCTATAGG	0.0674
CAGTGCTGACCTACCTGACCTGGCATACTA	0.335
GAAGAAGTCATCCATCATTCATACATTTGC	-0.417
AACAATGCAAGATAAAAGTGAGCAATGCTG	-1.33
GCAGGCAGAGGAACAGAGGGGTCTGAGCAC	-1.19
CCCACAGTGCATCTGATAAGGTTGTTAAGT	0.889
TCCAAAGCCTCATCTGAGATAAGGCAAGTC	-1.38
GTCCAAGTTGGTGAGAACAGAGTCTCCGAG	-0.509
ATTTGTGAAGGTGAATTTCAAGAATCTAAT	-1.43
AAGGGATCAGAAATTGATTTGTAACCTGCA	1.09
TGGAGTTAGCTGTCTTTCTGATAAGATTGG	1.02
GCTGCCAAGCGTCAGTCATACAGAGCTGTC	-1.41
GTCACAGCCTGGTTCTTGTAGGCCCCTGTG	1.21

Sequence	binding signal (log2 normalized intensity)
CCATTTTGGACTTTGACCTCCAAAATTATA	10.9
TTCTCTCAACCTCTCTGGGGGATGGGTCCA	3.21
AAAGGGAATTTTGGACAAGGTAACCCCCAA	4.01
GGCCCTTTGCAGCCCGAGCTGCTGGAACAG	-1.32
CAAAGTTCAAGGTCCAGCCTACCCACCCAC	4.96
GGACTTTTTTTTGCCTAACTGCTGCATGTC	0.235
ACCAAAACACTTGTGTCAACCGTGTCAACA	-1.2
GGGCTATTGACAAAGACCAGTGCTCTTTCT	-1.16
GGAGTGACCCTGGGAGCAAAGGTCAAGAGT	7.55
TATGAAATCTTATCAGAAGCTTACATATCA	-1.02
AAAGTCCACCGTGGTGTAGAGGCCCTGCAG	-0.136
CCGCACCCAGCTTTCATCTCGGCTGGCTAC	-1.35
TACCATGGGAGACCTCAGGGGTCATCAGAT	3.08
GCCTTTCTAGAACCAGAATTCCAGAGAAGC	-1.4
TTGTAGCCAAACTCACAGCTTTTATGTCAA	-0.853
TACTAACTGGACTTTATCTACCATTAGTCT	2.25
GAACCGTGATTATCATCTTTTACTTAGCAA	-1.24
GAGCTGGCGGCGCGGCCGGAGCGGCGGACC	-1.26
TCCAACCTGTTCTTTTGAGCTGTGGTTAAG	1.73
AGTATCCAGCTCCTCTTCACACCATGCTCT	-1.29
TTAAGTTGACTCCAATGCTCGTTGACCATT	2.4
ACCCTCTCTGGATGCAGGTCGCCGGGAAAA	0.74
CATCGGACTTTGATCTGCCACATACCTTTA	5.04
TGAGACTTCCCAGCTGCTGGTCAAAGGGCA	6.21
CGCTCCCAGAAGCCTCCGGTGTACCTCGCT	-1.31

Sequence	binding signal (log2 normalized intensity)
TCCTATCCTAGGGTTAAAGTCTACAACCAG	3.97
TTACTCATTCCCAGGTCGGGCCGGAGAGGC	0.864
GAGTTTAGAATTTGAACTATGGTCATCTGA	3.35
GTGGAGGCCAGCGCCAGGCTGGGGGCAGAG	-1.37
GTCTGCCTGACTCCAGAGTCCAAACTGGGA	3.18
CACTGCAAATGATGTCTCTCATTGGAATGA	0.57
GCAGAGTCCTGGGGAGGGTAAGCATGCTTG	-1.02
TGCTAATGTCCTTTGGAGTGCTTTCATCTT	1.63
GTGGGTGGGAAAGGGTGCTCCAGGCAAAGG	-0.586
TGTTCCTCTGCCCCTCATCGAGGCCATCCC	2.65
GGGTAAAACCAAACTGCAGCTGCTGCACTG	-1.28
CTGCACACACTCACAGAACACAGTGTTTGC	-1.26
TCCTGGCAGTGTGGAAAAGCTGGCTGGCGG	-1.34
GGTGACCCCTCAGTTTTTCTCTTTTGACCT	4.77
TACTGACTAAAGGTTAAACATGTACTCTGT	3.1
TTTGATAGGTGGTCTGTTTGTGAAACAGTG	1.79
CCGAGGTCCTGGGGCGATGCTTCCAAAGTC	-1.34
ACTCTGGGGCAATAACCCTAGACACCGGGT	-1.32
TCATTATCTTCAGTCTAGAATCTGCAGCCC	0.96
TCGCCGTGTGACTGAGGGCTGACATGTCTT	0.63
AGCTCTAAACCACCCAATCCTGCAGCATTC	-1.42
ACATTTCAGTATGAATGCCTTGGCCTCTGC	1.31
GGTTGGCACGCTTAGGGAACAAAGGTCAGT	7.22
TCTAGATGGGGTTGAGCAGACTAAAGGACT	-0.482
TGGCTGGCGGCTAGTGTACAGGTGACCTTT	7.84

Sequence	binding signal (log2 normalized intensity)
GAACTGTAACCTCAAAGGAGGTCAGAACTG	1.35
GGACGAAGGTCACTAATTGGAAGCTCTTTC	1.52
TGCCTGGCATCTAACCTTCGTCCTTGCCCC	4.15
AAGAAGGCAGACTCAAGATAGAGGGCTGCC	-1.35
GTGTTCGCCCCTAGGACACGCAGTTGGAGA	-0.708
AAGGTTATTTGCTCACCAGTGACCAATAAT	0.582
TGCCCTCTGGTGGCACACAGAGGACGTCAG	0.732
AAAAGCCCTAGTTTTTCTTCCGGTCACATA	1.45
CAAGCCTAGTTTTGATTATCACTACTCCTC	-0.964
CACAGCTCGACCTTTGACCTTCGGCTTCCC	9.06
AACAAAAGCAGAGGAGTGGCCATGATGCCA	-0.86
GGGCAAAGTCAGGTACTGGTAGCCTGGGCC	-1.11
GCCCAAAGGTCACCTCTTCAGATAGCCTTT	3.23
GGGCAGGTGAGAGGGCTCTGTCTGCTGGGC	-1.38
GTATACTATTTGCTAATGTCCTTTGGAGTG	2.41
CAGGCCATCACACTCCTACCCATTCTTCAG	-1.19
CTCTCAGGTCAAAGTTTGCCTTGACCTCTA	5.11
CTGTTGGTGACTGACCCTGATCCCTCCCTG	3.61
GATTCCCCAATGCAGTACTATGCAATAACC	0.931
GGAATATTGCCCCCTAATGGTATTTATTTT	3.1
ACCTTTTGGACCACAGAGTGACCTGGTATT	3.05
GACAAAGTTCTGTCCTTTGTCCCCCACCTG	5.15
CAAGCGTCAGTCATACAGAGCTGTCACGCA	-1.32
AGGGAGGTAAAAGTCCAACAGGGTTAAAAG	2.44
AGCCACCGCGCCCCGCCCCCAGTGCACCTT	5.01

Sequence	binding signal (log2 normalized intensity)
CTTCTGTTCAGGAGTTGTCTGTCCAGTTCA	1.62
GGGAGATAAGGTGGAAAGACAAGTTGAAGC	-1.34
GAAGGAGAGAGAGGGAGAGTGGCCTTTGGA	4.12
GCCTGCTTTCCACTCCCATTACTTCTGTTT	1.48
CAGGCAGACTGGCTCCGCTGCTGCAGAGCA	-1.22
GCCACGCACACCTGGATCTTCCAGGCCTCC	-1.34
CTGAGGTATTTTTGCAATCCTCCACTCTCC	0.0425
GAGTACTGTCTCTTATCAGCCATCTCCCCA	3.14
GGTGTACAAGGAGTCTCCACTATGACCTGT	3.43
AGGGAATGAAGCTAAAAGAAGTCCAAGGAC	-0.989
GTTGCTTCCACCTATGAGTCTGTAAAGTCA	0.697
CCCAAACTTAAAAGAAGCTACTAGCAAATC	-1.29
GCAATTCCCCTGGGCCCACGGCTCTGCACA	-1.25
CTTTACATTTATTAGAACCTTATGTGAGTA	1.24
GCAGTAACGGCAGGGTTGTGCAGGACTGCG	-0.641
ATTTTATGCTTACTGCCTCAGGGAGGAGTT	-1.26
GGTTAAAATTTATCTATTGGGTACAATGTT	2.37
TCTTATGTCCCTCCTGACCTTTGGACTTGA	10.6
TAAAGCGGACGGGCTGCGGAGGCGACTGCA	-1.31
CAGGGACCTTTGTTCCTTTACACATGAGAG	2.87

— publication PMC10726135
